Experimental data published in PubChem BioAssay AID330 (DTP/NCI, 2004).
Inconclusive results and toxic doses are left out. Certain results were filed several times, with different values. Only these are listed. An entry can have further records. Values that stand side by side are repeats in other runs, samples, wells, individuals or studies. What stands in brackets tells the records apart. The letters are not those of the source and start again with each entry.

System: P388 leukemia ip, CD2F1 mice, survival T/C
Test: NCI In Vivo Anticancer Drug Screen. Data for tumor model P388 Leukemia (intraperitoneal) in CD2F1 (CDF1) mice
Details: endpoint: median survival time, higher = longer survival
[1] = dose: 25.0 mg/kg/injection, schedule: Q01DX009 (ip), vehicle: saline

`CCCCN(CCCC)P(=O)(N1CC1)N1CC1` was tested, and the T/C [1] was 91 % of control and 168 % of control.

For `O=C1N[C@@H]2C(=C[C@H](O)[C@@H](O)[C@H]2O)c2cc3c(c(O)c21)OCO3`, the T/C (dose: 2.5 mg/kg/injection, schedule: Q01DX009 (ip), vehicle: saline with Tween-80) was 93 % of control and 162 % of control.

For `CCC1(O)CC(OC2CC(N(C)C)C(OC3CC4OC5CC(=O)C(C)OC5OC4C(C)O3)C(C)O2)c2c(cc3c(c2O)C(=O)c2c(O)ccc(O)c2C3=O)C1C(=O)OC` (centres undefined), the T/C (dose: 4.0 mg/kg/injection, schedule: Q04DX003 (ip), vehicle: saline with Tween-80) was 172 % of control [sample A] and 90 % of control [sample B].

In the case of `CCCCCCCCCCCCCCCCCCCCCC(=O)Nc1ccn(C2OC(CO)C(O)C2O)c(=O)n1` (centres undefined), the T/C (dose: 50.0 mg/kg/injection, schedule: Q01DX009 (ip), vehicle: saline with Tween-80) is reported as 90 % of control and 195 % of control.

`COc1ccc(-n2c(C)c(COC(C)=O)c(COC(C)=O)c2C)cc1` was tested, and the T/C [1] was 95 % of control and 154 % of control.

With `CNC(=O)OCc1c(COC(=O)NC)c(-c2ccc(F)cc2)n(C)c1C` the T/C (dose: 25.0 mg/kg/injection, schedule: Q01DX009 (ip), vehicle: distilled water + Tween-80) was 106 % of control and 150 % of control.

For `C[n+]1ccc(NC(=O)c2ccc(NC(=O)c3cccc(C(=O)Nc4ccc(C(=O)Nc5cc[n+](C)cc5)cc4)c3)cc2)cc1`, the T/C (dose: 100.0 mg/kg/injection, schedule: Q04DX003 (ip), vehicle: saline with Tween-80) was 123 % of control, 190 % of control, 200 % of control.

In the case of `CCN(CC)CCn1[nH]c2c3ccc(=O)cc3sc3c(NCCN)ccc1c32`, the T/C (dose: 1.56 mg/kg/injection, schedule: Q01DX005 (ip), vehicle: water) is reported as 114 % of control, 175 % of control, 194 % of control.

`CCNCCNc1ccc(NCCNCC)c2c1C(=O)c1ccccc1C2=O` was tested, and the T/C (dose: 25.0 mg/kg/injection, schedule: Q01DX009 (ip), vehicle: other) was 102 % of control and 162 % of control.

With `CCNC(=NC)c1ccc(NC(=O)c2ccc(C(=O)Nc3ccc(C(=NC)NCC)cc3)cc2)cc1` the T/C (dose: 6.0 mg/kg/injection, schedule: Q01DX009 (ip), vehicle: saline with Tween-80) was 113 % of control and 181 % of control.

In the case of `C[n+]1cc2cc3c(cc2c2ccccc21)OCO3`, the T/C (dose: 25.0 mg/kg/injection, schedule: Q01DX009 (ip), vehicle: water) is reported as 100 % of control and 151 % of control.

In the case of `O=C(Nc1ccc([N+](=O)[O-])cc1)Nc1nccs1`, the T/C (dose: 100.0 mg/kg/injection, schedule: Q01DX009 (ip), vehicle: distilled water + Tween-80) is reported as 86 % of control and 151 % of control.

In the case of `Nc1ccn([C@@H]2C=C(CO)[C@@H](O)[C@H]2O)c(=O)n1`, the T/C (dose: 1.5 mg/kg/injection, schedule: Q01DX009 (ip), vehicle: saline) is reported as 113 % of control and 169 % of control.

`COc1cc2c(c(OC)c1OC)-c1ccc(SC)c(=O)cc1[C@@H](NC(=O)CO)CC2` was tested, and the T/C (dose: 0.4 mg/kg/injection, schedule: Q01DX009 (ip), vehicle: other) was 99 % of control and 172 % of control.

In the case of `CCC[CH2][Sn]([CH2]CCC)([S]C#N)[S]C#N`, the T/C (dose: 3.0 mg/kg/injection, schedule: Q01DX009 (ip), vehicle: saline with Tween-80) is reported as 96 % of control and 154 % of control.

In the case of `COc1cccc2c1C(=O)c1c(O)c3c(c(O)c1C2=O)C[C@@](O)(/C(C)=N/NC(=O)c1cccc([N+](=O)[O-])c1)C[C@@H]3OC1CC(N)C(O)C(C)O1` (some centres undefined), the T/C (dose: 128.0 mg/kg/injection, schedule: Q04DX003 (ip), vehicle: saline) is reported as 115 % of control and 152 % of control and the T/C (dose: 256.0 mg/kg/injection, schedule: Q04DX003 (ip), vehicle: saline) is reported as 108 % of control and 179 % of control.

With `CN(Cc1ccccc1)N=NCc1ccccc1` the T/C (dose: 100.0 mg/kg/injection, schedule: Q01DX005 (ip), vehicle: saline with Tween-80) was 90 % of control and 151 % of control.

`COc1cc2c(c(OC)c1OC)-c1cc3c(cc1CC1COC(=O)N1C2)OCO3` (centres undefined) was tested, and the T/C (dose: 120.0 mg/kg/injection, schedule: Q01DX005 (ip), vehicle: Klucel (hydroxypropylcellulose) (HPC)) was 95 % of control, 97 % of control, 164 % of control.
